Measurements published in the supplement of paper PMC10338343.
± gives the standard deviation. The entries are a selection whose mix differs from that of the whole data set.

Test system: MIWI (PIWIL1) piRISC loaded with L1MC piRNA (30 nt)
Test: pre-steady-state target cleavage rate (min^-1); MIWI and MILI are mouse PIWI proteins and EfPiwi is from a freshwater sponge; tags in brackets are library labels; higher = faster piRNA-guided slicing of the target
Settings: guide: L1MC piRNA 5'p-UAACUAAAUACUAUGCAAGCUGUAGGUCCU
Method in brief: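 Cleave-'n-Seq: 1 nM active affinity-purified piRISC with one synthetic guide and 0.1 nM transcribed, DNA-blocked target RNA library were mixed, with or without 500 nM GTSF1 partner protein, in HEPES–potassium acetate buffer at 33 °C for 0–8 or 0–960 min. Uncleaved targets were sequenced and normalised to depth and to weakly complementary targets, three trials were pooled, and k3 was capped at 0.0001 min^-1. The pre-steady-state cleavage rate was fitted […].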

[1] = auxiliary factor: 500 nM mouse GTSF1
[2] = auxiliary factor: none (no GTSF1)

Sequence: UCCACCUACAGCAUGCAUAGAAUUUAGUUA
- pre-steady-state target cleavage rate [1]: 0.322 ± 0.051
- pre-steady-state target cleavage rate [2]: 0.00483 ± 0.0017

Sequence: UCCUGGAUCAGCUUGGAUAGUAUUUACUUA
- pre-steady-state target cleavage rate [1]: 0.244 ± 0.048
- pre-steady-state target cleavage rate [2]: 0.00918 ± 0.0037

Sequence: UGGACCUACACCUUGCAAAGUAUUUAGUUA
- pre-steady-state target cleavage rate [1]: 1.11 ± 0.035
- pre-steady-state target cleavage rate [2]: 0.038 ± 0.0068

Sequence: UCCUGGUACAGCUUGCAAUAGUAUUUAGUUA
- pre-steady-state target cleavage rate [1]: 0.0375 ± 0.0098
- pre-steady-state target cleavage rate [2]: 0.00446 ± 0.0028

Sequence: AGGAGCUACAGCUUGCAUACUAUUUAGUUA
- pre-steady-state target cleavage rate [1]: 0.369 ± 0.012
- pre-steady-state target cleavage rate [2]: 0.0371 ± 0.0072

Sequence: UCCUGGAUGUCGUUGCAUAGUAUUUCGUUA
- pre-steady-state target cleavage rate [1]: 0.00995 ± 0.004
- pre-steady-state target cleavage rate [2]: 0.00392 ± 0.0028

Sequence: AGGACCUACAGCUUGCAUAGUAUUUAGUUUA
- pre-steady-state target cleavage rate [1]: 1.27 ± 0.067
- pre-steady-state target cleavage rate [2]: 0.11 ± 0.019

Sequence: UCCUGCUACAGCUAGCAAAGUAUUUAGUUA
- pre-steady-state target cleavage rate [1]: 1.09 ± 0.084
- pre-steady-state target cleavage rate [2]: 0.00787 ± 0.0023

Sequence: UCCUGGUACAGCUUGCUAAGUAUUUAGUUA
- pre-steady-state target cleavage rate [1]: 0.15 ± 0.014
- pre-steady-state target cleavage rate [2]: 0.00792 ± 0.0027

Sequence: UCCUGGUACAGCUUGCAUAGAAUUUAGAAA
- pre-steady-state target cleavage rate [1]: 0.11 ± 0.039
- pre-steady-state target cleavage rate [2]: 0.00303 ± 0.0024

Sequence: UCCACCUACUGGUUGCAUAGUAUUUAGUUA
- pre-steady-state target cleavage rate [1]: 0.661 ± 0.062
- pre-steady-state target cleavage rate [2]: 0.0297 ± 0.0047

Sequence: UCCUGGUUCAGCUUGCAUAGUAUUUAGAUA
- pre-steady-state target cleavage rate [1]: 0.261 ± 0.036
- pre-steady-state target cleavage rate [2]: 0.0138 ± 0.0041

Sequence: UCGACCUAGAGCUUGCAUAGAAUUUAGUUA
- pre-steady-state target cleavage rate [1]: 0.325 ± 0.029
- pre-steady-state target cleavage rate [2]: 0.0143 ± 0.0039

Sequence: UCGACCUACAGCUUGCAUAGUAUUUUCUUA
- pre-steady-state target cleavage rate [1]: 0.331 ± 0.037
- pre-steady-state target cleavage rate [2]: 0.0352 ± 0.0091

Sequence: AGGACCUACAGCUUGCAAAGUAUUUACAAA
- pre-steady-state target cleavage rate [1]: 0.321 ± 0.041
- pre-steady-state target cleavage rate [2]: 0.00586 ± 0.0026

Sequence: UCCUGCUGCAGCUUGCAUAGUAUUUAGUUA
- pre-steady-state target cleavage rate [1]: 1.27 ± 0.058
- pre-steady-state target cleavage rate [2]: 0.0512 ± 0.011

Sequence: UCCUGGAUCAGCUUAGCAUAGUAUUUAGUUA
- pre-steady-state target cleavage rate [1]: 0.866 ± 0.054
- pre-steady-state target cleavage rate [2]: 0.0133 ± 0.0038

Sequence: UCCUGGAUCAGCUUGCUUAGUAUUUAGAUA
- pre-steady-state target cleavage rate [1]: 0.351 ± 0.036
- pre-steady-state target cleavage rate [2]: 0.00934 ± 0.0028

Sequence: UGGACCUACAGCUUGGAUACUAUUUAGUUA
- pre-steady-state target cleavage rate [1]: 0.318 ± 0.028
- pre-steady-state target cleavage rate [2]: 0.0235 ± 0.0052

Sequence: AGGACCUUCAGCUUGCAUAGUAUUUAGUAA
- pre-steady-state target cleavage rate [1]: 1.07 ± 0.079
- pre-steady-state target cleavage rate [2]: 0.0632 ± 0.012

Sequence: UCCUGGAUGACCUUGCUUAGUAUUUAGUUA
- pre-steady-state target cleavage rate [1]: 0.0168 ± 0.0048
- pre-steady-state target cleavage rate [2]: 0.0045 ± 0.0018

Sequence: UCCUGGAUGAGGUUGCAAAGUAUUUAGUUA
- pre-steady-state target cleavage rate [1]: 0.102 ± 0.014
- pre-steady-state target cleavage rate [2]: 0.00367 ± 0.0033

Sequence: AGGACCUAGAGCUUGCAUAGUAUUUACUUA
- pre-steady-state target cleavage rate [1]: 0.157 ± 0.021
- pre-steady-state target cleavage rate [2]: 0.0219 ± 0.0043

Sequence: UCGACCUACAGCUUGCAUACUAUUUUGUUA
- pre-steady-state target cleavage rate [1]: 0.218 ± 0.02
- pre-steady-state target cleavage rate [2]: 0.0176 ± 0.0038

Sequence: UCCACCUACAGCUUGCAUAGUAUUUACAUA
- pre-steady-state target cleavage rate [1]: 0.288 ± 0.043
- pre-steady-state target cleavage rate [2]: 0.0115 ± 0.0036

Sequence: UCCACCUACAGCUUGCAUAGUAUCUAGUUA
- pre-steady-state target cleavage rate [1]: 0.488 ± 0.039
- pre-steady-state target cleavage rate [2]: 0.0248 ± 0.0038

Sequence: AGGACCUAGUCCUUGCAUAGUAUUUAGAAA
- pre-steady-state target cleavage rate [1]: 0.379 ± 0.051
- pre-steady-state target cleavage rate [2]: 0.00589 ± 0.0017

Sequence: UGGGCCUACAGCUUGCAUAGUAUUUAGUUA
- pre-steady-state target cleavage rate [1]: 1.39 ± 0.08
- pre-steady-state target cleavage rate [2]: 0.0716 ± 0.013

Sequence: UCCUGGAUGAGCUUGCAUAGUAUUUAGAAA
- pre-steady-state target cleavage rate [1]: 0.299 ± 0.055
- pre-steady-state target cleavage rate [2]: 0.00764 ± 0.0029

Sequence: UCCUGCUAGAGGUUGCAUAGUAUUUAGUUA
- pre-steady-state target cleavage rate [1]: 0.551 ± 0.041
- pre-steady-state target cleavage rate [2]: 0.00669 ± 0.0016

Sequence: UCCUGGAUGAGCUUGCAUAGUAUUUAGAUA
- pre-steady-state target cleavage rate [1]: 0.341 ± 0.046
- pre-steady-state target cleavage rate [2]: 0.033 ± 0.0083

Sequence: UCCUGCUAGAGCUUGCAAAGUAUUUAGUUA
- pre-steady-state target cleavage rate [1]: 0.403 ± 0.037
- pre-steady-state target cleavage rate [2]: 0.0176 ± 0.0047

Sequence: UCCUGGAACAGCUUGCAAACUAUUUAGUUA
- pre-steady-state target cleavage rate [1]: 0.147 ± 0.017
- pre-steady-state target cleavage rate [2]: 0.00545 ± 0.0032

Sequence: UCCUGCUACACGCUUGCAUAGUAUUUAGUUA
- pre-steady-state target cleavage rate [1]: 0.645 ± 0.058
- pre-steady-state target cleavage rate [2]: 0.0232 ± 0.0045

Sequence: UGGACGAUCAGCUUGCAUAGUAUUUAGUAA
- pre-steady-state target cleavage rate [1]: 0.953 ± 0.064
- pre-steady-state target cleavage rate [2]: 0.0656 ± 0.013

Sequence: UCCUGGAAGAGCUUGCAUAGUAUUUAGAAA
- pre-steady-state target cleavage rate [1]: 0.311 ± 0.041
- pre-steady-state target cleavage rate [2]: 0.0061 ± 0.002

Sequence: UCCUGGUACAGUCUUGCAUAGUAUUUAGUUA
- pre-steady-state target cleavage rate [1]: 0.43 ± 0.048
- pre-steady-state target cleavage rate [2]: 0.0202 ± 0.0051

Sequence: UCCUGGAUGAGCUAGCAUAGUAUUAAGUUA
- pre-steady-state target cleavage rate [1]: 0.21 ± 0.026
- pre-steady-state target cleavage rate [2]: 0.00343 ± 0.0028

Sequence: UCCUGGAACAGCUUGCAAAGUAUUAAGUUA
- pre-steady-state target cleavage rate [1]: 0.439 ± 0.041
- pre-steady-state target cleavage rate [2]: 0.0119 ± 0.0043

Sequence: UCCUGGAUCAGCUUGCAUAGUAUUUUCAUA
- pre-steady-state target cleavage rate [1]: 0.142 ± 0.024
- pre-steady-state target cleavage rate [2]: 0.00506 ± 0.0023

Sequence: UCCACCUACAGUUUGCAUAGUAUUUAGUUA
- pre-steady-state target cleavage rate [1]: 0.892 ± 0.072
- pre-steady-state target cleavage rate [2]: 0.0474 ± 0.0076

Sequence: UCCUGGAUCAGCAUGCAUAGUAUUUAGUAA
- pre-steady-state target cleavage rate [1]: 0.658 ± 0.064
- pre-steady-state target cleavage rate [2]: 0.0057 ± 0.0025

Sequence: UCCUGGAUGUGCUUGCAUAGUUUUUUGUUA
- pre-steady-state target cleavage rate [1]: 0.0135 ± 0.0056
- pre-steady-state target cleavage rate [2]: 0.00432 ± 0.0033

Sequence: UGGACGUACAGCUUGGAUAGUAUUUAGUUA
- pre-steady-state target cleavage rate [1]: 1.4 ± 0.054
- pre-steady-state target cleavage rate [2]: 0.0597 ± 0.01

Sequence: UCCUGGAACAGCUUGCAUUGUAUUUAGAAA
- pre-steady-state target cleavage rate [1]: 0.205 ± 0.034
- pre-steady-state target cleavage rate [2]: 0.00569 ± 0.0034

Sequence: AUGACCUACAGCUUGCAUAGUAUUUAGUUA
- pre-steady-state target cleavage rate [1]: 1.06 ± 0.03
- pre-steady-state target cleavage rate [2]: 0.0859 ± 0.013

Sequence: UCGACCUACAGCUUGCAUAGUAUGUAGUUA
- pre-steady-state target cleavage rate [1]: 0.375 ± 0.059
- pre-steady-state target cleavage rate [2]: 0.0136 ± 0.0032

Sequence: UCCACCUACAGCUUGCAUACUAUUUAGUAA
- pre-steady-state target cleavage rate [1]: 0.184 ± 0.028
- pre-steady-state target cleavage rate [2]: 0.00957 ± 0.0025

Sequence: UCCACCUACAGCUUGGAUUGUAUUUAGUUA
- pre-steady-state target cleavage rate [1]: 0.417 ± 0.018
- pre-steady-state target cleavage rate [2]: 0.0124 ± 0.0027

Sequence: AGGACCUACAGCUUGCAUACUAUUUAGAAA
- pre-steady-state target cleavage rate [1]: 0.315 ± 0.055
- pre-steady-state target cleavage rate [2]: 0.0104 ± 0.0029

Sequence: UGGAGCUACAGGUUGCAUAGUAUUUAGUUA
- pre-steady-state target cleavage rate [1]: 0.765 ± 0.044
- pre-steady-state target cleavage rate [2]: 0.0388 ± 0.0065

Sequence: UCCUGGUGACAGCUUGCAUAGUAUUUAGUUA
- pre-steady-state target cleavage rate [1]: 1.28 ± 0.055
- pre-steady-state target cleavage rate [2]: 0.13 ± 0.027

Sequence: UCCUGGAUCAGCUUGCAAAGUAUUUAGUUA
- pre-steady-state target cleavage rate [1]: 1.16 ± 0.065
- pre-steady-state target cleavage rate [2]: 0.0381 ± 0.012

Sequence: UGGACCUACAGCUUGCAUAGUGUUUAGUUA
- pre-steady-state target cleavage rate [1]: 1.15 ± 0.047
- pre-steady-state target cleavage rate [2]: 0.0474 ± 0.0087

Sequence: UGGACCUACAGCUUGCAUAGUAAAAAGUUA
- pre-steady-state target cleavage rate [1]: 0.337 ± 0.044
- pre-steady-state target cleavage rate [2]: 0.00424 ± 0.0024

Sequence: UCCUGGAUCAGCAUGCAUAGUAUUUAGAAA
- pre-steady-state target cleavage rate [1]: 0.129 ± 0.02
- pre-steady-state target cleavage rate [2]: 0.00297 ± 0.0019

Sequence: UCCACCUAGAGCUUGCAUAGUAUUUAGAUA
- pre-steady-state target cleavage rate [1]: 0.178 ± 0.032
- pre-steady-state target cleavage rate [2]: 0.00955 ± 0.0025

Sequence: UCCACCUUCAGCUUGCAUAGUAUUUAGAUA
- pre-steady-state target cleavage rate [1]: 0.216 ± 0.026
- pre-steady-state target cleavage rate [2]: 0.015 ± 0.0032

Sequence: UCCACCUACAGCUUGCAAAGUAUUUUGUUA
- pre-steady-state target cleavage rate [1]: 0.517 ± 0.04
- pre-steady-state target cleavage rate [2]: 0.0118 ± 0.0016

Sequence: UCCACCUACUCGUUGCAUAGUAUUUAGUAA
- pre-steady-state target cleavage rate [1]: 0.406 ± 0.031
- pre-steady-state target cleavage rate [2]: 0.00745 ± 0.0019
